The source of these data is the RNAGym collection of RNA variant scans (doi:10.7554/elife.90254).

B1: LINE1-mini (parent)
chain: GGCAGAGCUCAACACAGCGUGGCAAAGUGGCUGUGGCUAGACUGCC

The source gives no read counts; variants with many changes may rest on few reads.

In this data set the parent is B1. As to the kind of experiment: self-cleavage, relative activity (ratio to wild type); higher = more cleavage; in vitro, sequencing; the parent is a self-cleaving ribozyme.
Turning to G27A U28C C37G, the self-cleavage is 0.03.

Consider A16U G30A U34A G40U, for which the self-cleavage was 0.02.

With G17A C31A G33U, the self-cleavage came to 0.08. Next, A6C C8A U20A C31A G33U G44U: 0.03. With G1C C3U A4C G40C, the self-cleavage stood at 0.02.

As to A6C G7U A24C G35U, the self-cleavage is 0.15. Regarding G1A G2C A4G G30A U34G U38G, the self-cleavage is 0.04. Turning to G5U C18U G36U A39G, the self-cleavage was 0. As to C3U G5U C13A C31U G33C C45G, the self-cleavage amounted to 0.07.

A4C A14C C42U: the self-cleavage is 0.35. For the variant G19U C31A C46A, the self-cleavage amounted to 0.08. As to G17U G21A G33A A41U U43C, the self-cleavage amounted to 0.06. Regarding G2A G21A A24U G30U C46U, the self-cleavage amounted to 0.13. Regarding A24G A39G G44C, the self-cleavage was found to be 0.07. Next, G5U C8U C10U G27C C31G: 0.05; C3U U9A G19C A26U G30U: 0.03.

As to G33A C42A U43A G44A, the self-cleavage was 0.09. Next, A16U G19C A26C: 0.23. As for A6G G17C A26C G29U, the self-cleavage turned out to be 0.07.

For the variant G21A G22A A25C G30C C37A U38G, the self-cleavage was found to be 0.03. On to G5A C10A G17C G19U C42A, for which the self-cleavage turned out to be 0.03. G1U G17A C42U: the self-cleavage stood at 0.06.

In the case of U9C G19A G21U C37G, the self-cleavage worked out at 0.

On to G27A U28A U32G, for which the self-cleavage was found to be 0.3.

With U9A A11U U32G, the self-cleavage is 0.03. Next, C8U G19U A26C: 0.01.

Take G2U C8U U34C G36A C37U: the self-cleavage turned out to be 0.12. Take C3A G7C A12C G17A A24G C31G G44U: the self-cleavage was determined as 0.

On to C15U G29C C37G U43G, for which the self-cleavage stood at 0.02. With U9C G21A G36A C46G, the self-cleavage turned out to be 0.02. Consider G2A U34A G36C, for which the self-cleavage stood at 0.05. With G2A A26G G29U C31U, the self-cleavage came out at 0.09. As to G1U U9A G27C C45A, the self-cleavage stood at 0.02. As for A6G C8A U32G, the self-cleavage amounted to 0.27. Regarding A11G G29A A41U, the self-cleavage was 0.02. As for C3G U34C G36C, the self-cleavage is 0.07. Next, A4G U9A G21A: 0.36. As for A6C G30A G40C, the figure is 0.04. Consider C8A G21U G22A G30C, for which the self-cleavage was found to be 0.1.

Turning to U38C G40A A41U, the self-cleavage worked out at 0.4.

Consider G5U C10A U20G, for which the self-cleavage amounted to 0.02. Take A11U C31A U34G U43C C46U: the self-cleavage was 0. As for G1A G5U C13U A25U U28A C46G, the self-cleavage came out at 0.06.

Regarding C13G G21U G22U, the self-cleavage amounted to 0.16. G5C G19A C37G: the self-cleavage amounted to 0.03. On to A11G A12C A16C G30A U32C G40C, for which the self-cleavage was 0.01.

U9A C31U U43A: the self-cleavage is 0.05. Next, C10G C18A G36A: 0.02; C3A U9G G17C U20C G36A: 2.23. Turning to U28G G29A U43A, the self-cleavage was determined as 0.07.

Regarding G27A G35A A39G, the self-cleavage stood at 0.17. A4G A12C A41G: the self-cleavage is 0.02. For C10A A11U C13A G22U, the self-cleavage is 0.01. For the variant G1C A11C A16U G27C U28C, the self-cleavage is 0.01. Regarding A14G G19C A25U, the self-cleavage worked out at 0.26. As for G5A G33A C46U, the figure is 0.07; as for G5A C18U G35A C42G, 0.06.

Regarding A6C U32C A39U C42A U43C G44A, the self-cleavage amounted to 0.

In the case of C3G A6C A12C, the self-cleavage turned out to be 0.06. As to U20G U34C C37U G40U, the self-cleavage stood at 0.06.

For C18A G27A G29C, the self-cleavage worked out at 1.23.

As to A4U C31G U34C, the self-cleavage turned out to be 0.03. As for G7A C10U U34A G35U, the self-cleavage turned out to be 0.03. Turning to G1C A12U G19C, the self-cleavage is 0.04. Take A12G C18A C37U: the self-cleavage was determined as 0.07. Take U20C U34A C45A: the self-cleavage was 0.03. On to U32G G33U A41U, for which the self-cleavage was determined as 0.05. As to A11G A12U A25G G27C, the self-cleavage turned out to be 0. Take C8G C13A G22U: the self-cleavage was found to be 0.03. Next, C3G A6U G7C U20A G21C A25G: 0.04; C8A A25U C37A: 0.12. With G1U U20C A39C, the self-cleavage turned out to be 0.01. Take G1U G19U G29U U43A: the self-cleavage came out at 0.02. For the variant C10A C15A G19A A39G, the self-cleavage is 0.01.

Regarding G27C G33C G36U U38A A39G, the self-cleavage was 0.03. Turning to G19C G22C G36A, the self-cleavage is 0.06. Take C3A C15A A24U G29A C37A: the self-cleavage was found to be 0.06. For the variant G2C A4G U9A U28G, the self-cleavage is 0.02.

Take U32C G35A C42G: the self-cleavage amounted to 0.04.

As to C8A G17C G27C G36A, the self-cleavage worked out at 0.11.

A14C G29A G30A: the self-cleavage worked out at 0.26.

Take C15A C18A G44A: the self-cleavage worked out at 0.08. In the case of G2A G22A U34A, the self-cleavage came out at 0.28. On to C3U A4U G29A A39C, for which the self-cleavage came out at 0.07.

In the case of U28G G40U A41C, the self-cleavage came to 0.06. As for A11C C13A C23A A24U C45U, the self-cleavage stood at 0.03. For C15U A16C G17A U20G U43C, the self-cleavage was 0.01. Turning to A12C G22U U38A U43C, the self-cleavage stood at 0. On to G2C A16C A25G, for which the self-cleavage came to 0.02. Turning to C3A C10U U32G C42G, the self-cleavage is 0.07. In the case of G1A C18A G19A A25C G44C, the self-cleavage was determined as 0.03. As for C10G A14G A41U C42U, the figure is 0.02; as for A11U C23G G27C G40C, 0. In the case of C3A G5U C37U U38C, the self-cleavage turned out to be 0.12.

Consider G5U C18A C42U, for which the self-cleavage is 0.03. As for G2A G7C A11U, the figure is 0.01; as for C13U G22U C31A A41U G44A, 0.05; as for G7C A11U A14C, 0.06. Regarding C8U C13U C45U, the self-cleavage turned out to be 0.23. With G2U U20A G29U G40A, the self-cleavage was 0.04.

For the variant G21U U34A C42U, the self-cleavage is 0.1.

For G30U G35C C37A, the self-cleavage came out at 0.07. With G1C G2A A12G C23U, the self-cleavage was found to be 0.03. In the case of G7A U9A A11G, the self-cleavage is 0.01.

With C3A A4G G33U, the self-cleavage amounted to 0.11. With A11U G21C C31A, the self-cleavage is 0.03. Next, A6U C13A A16G G22U U28G: 0.01; G30U G33U A39U: 0.15; C18A A25G C45G: 0.09. Consider C13A A16U A24U, for which the self-cleavage amounted to 0.31. For G5U A11U A16C, the self-cleavage amounted to 0. For the variant C18U U28A G29A C31A, the self-cleavage amounted to 0.1. Regarding G21U A24U G40A U43C G44A, the self-cleavage was 0.05.

As to U28G U34C G44U, the self-cleavage stood at 0.23. As for G2U G7A U20A G29C, the self-cleavage is 0.05. Next, C23U G29A U32C: 0.2. Next, G5U G29U G40A: 0.06. C3G G21U C42G: the self-cleavage is 0.31.

Turning to C10A C18A A25U C46U, the self-cleavage was found to be 0.05. As to G1U G2C C8G C10G C18U G21C A41C G44U C46U, the self-cleavage is 0.

On to C10U A39C G40A, for which the self-cleavage came out at 0.05. Turning to A4C U32A G36C, the self-cleavage stood at 0.06.

Consider G35U G36U A39U, for which the self-cleavage was 0.11. With G21A C37U C45U, the self-cleavage is 0.05. A4G C13A A41G: the self-cleavage turned out to be 0.16.

On to C18A U20A C45A, for which the self-cleavage turned out to be 0.29. For the variant G7U C31U U38C G40C, the self-cleavage worked out at 0.1. Take C3G G27U U28A U32G: the self-cleavage was 0.06. For the variant G5C U28G U32G C46U, the self-cleavage came out at 0.03. For the variant G2C A12C G30C A39C, the self-cleavage amounted to 0.02. Regarding U20G G22U G33C C42U C45A, the self-cleavage turned out to be 0.09.

As to G5C C15G G40U, the self-cleavage was 0.02.

Take G2A C8U A14U U20A: the self-cleavage came out at 0.27. As for G2A C3A A26C, the figure is 2.48; as for C15A A16U C42G, 0.11; as for C15A C18A G21C, 0.04. For the variant G2C G17C U28C, the self-cleavage was found to be 0.12. Take C23G C31G A41U: the self-cleavage stood at 0.03. Turning to G2U A6U G21A C42U C46U, the self-cleavage came out at 0.06. As to C23U A25U C42U, the self-cleavage came out at 0.36. With G5A G19A U32C, the self-cleavage turned out to be 0.1. For U9A G19C G44A, the self-cleavage is 0.02. Next, U32A C42A C46A: 0.11; G5C C8G G30C G35C G44A: 0.01; A4G C15G A24U A26G: 0.04.

With C3G U9A C45G, the self-cleavage worked out at 0.29. For the variant A6U G19C A24U G40U C42G C45G, the self-cleavage stood at 0.02. In the case of G2U G5U C10A G22U U38A, the self-cleavage turned out to be 0.03. Consider A12G C15A C18G A24C G36C, for which the self-cleavage was found to be 0.11. Next, U9A C10A G22U G29A G35C G36A G44A: 0.03.

Turning to G2A C13U A41C C46G, the self-cleavage came to 0.19. As for G2A C15A G30U, the figure is 0.27; as for A26U G33A G35A, 0.1. Next, G1A G2U A6U G7C C10G U34C G40A C46U: 0.04; G21A G29U C37A A39G: 0.1; G5C A6G C42G: 0.11. For the variant G5A C18U G33U, the self-cleavage was 0.05. For A6U C8U U20A G33U, the self-cleavage was found to be 0.03.

In the case of G5U A24U C42G, the self-cleavage came out at 0.08. Next, A24G G30U C42G: 0.03. With A4C A41U C42A G44U, the self-cleavage is 0.11. Take G17C C18G G21U G36U: the self-cleavage worked out at 0.03.

For G2U C10G G29A, the self-cleavage turned out to be 0.02. Consider G2A G33C C45U, for which the self-cleavage is 0.02.

As for G2A U9A C23A, the self-cleavage came out at 0.29.

Consider C3G A24G G30C G40C A41U C42A, for which the self-cleavage amounted to 0.07. Turning to C3G A4C G22A, the self-cleavage worked out at 0.13.
